Experimental findings from the supplement of paper PMC4604168 (melanoma cell lines) are described below.

Among the test systems are WM115; WM1716; WM1745; WM3526; WM3619; WM451Lu.
What all share (experiment): cell count relative to DMSO control; melanoma cells; higher = more viable cells
What all share (details): library dose: low library concentration; 72 h

Structures are written as SMILES. Some of the results follow. Many values rest on one well or one pass, so single values are uncertain.
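Also: cell number obtained by counting DAPI-stained nuclei in high-throughput microscope images with image analysis software, screen run in 1,536-well plates.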

As to `Cc1ccc(Nc2nccc(N(C)c3ccc4c(C)n(C)nc4c3)n2)cc1S(N)(=O)=O` [Pazopanib] + COc1ccc(C2=N[C@@H](c3ccc(Cl)cc3)[C@@H](c3ccc(Cl)cc3)N2C(=O)N2CCNC(=O)C2)c(OC(C)C)c1 [Nutlin-3] (first compound 0.4 µM, partner dose 0.1 µM), the cell count in the assay on WM115 turned out to be 80.2%; in the assay on WM1716 it was 82%; in the assay on WM1745, 88%; in the assay with WM3526, 111%; in the assay on WM3619, 80.3%; in the assay with WM451Lu, 130%.
In the case of `Cc1ccc(Nc2nccc(N(C)c3ccc4c(C)n(C)nc4c3)n2)cc1S(N)(=O)=O` [Pazopanib] + Nc1ccn([C@@H]2O[C@H](CO)[C@@H](O)C2(F)F)c(=O)n1 [gemcitabine] (first compound 0.4 µM, partner dose 0.0004 µM), the cell count in the assay with WM115 is 105%; in the assay on WM1716, 89.8%; in the assay on WM1745 it was 97.5%; in the assay with WM3526 it was 104%; with WM3619, 86.6%; in the assay with WM451Lu, 72.9%.
For `O=C(/C=C/c1cccnc1)NCCCCC1CCN(C(=O)c2ccccc2)CC1` + C[C@]1(c2nc3c(C(N)=O)cccc3[nH]2)CCCN1 [Veliparib] (first compound 0.01 µM, partner dose 1.4 µM), the cell count turned out to be 93.7% in the assay on WM115; 88.5% in the assay with WM1716; 99.9% with WM1745; 129% with WM3526; 95.5% in the assay on WM3619; 108% in the assay with WM451Lu.
Turning to `O=C(/C=C/c1cccnc1)NCCCCC1CCN(C(=O)c2ccccc2)CC1` + CO[C@H]1C[C@@H]2CC[C@@H](C)[C@@](O)(O2)C(=O)C(=O)N2CCCC[C@H]2C(=O)O[C@H]([C@H](C)C[C@@H]2CC[C@@H](OCCO)[C@H](OC)C2)CC(=O)[C@H](C)/C=C(\C)[C@@H](O)[C@@H](OC)C(=O)[C@H](C)C[C@H](C)/C=C/C=C/C=C/1C [everolimus] (first compound 0.01 µM, partner dose 0.02 µM), the cell count amounted to 99.6% with WM115; 71.5% with WM1716; 88.7% in the assay on WM1745; 76.1% with WM3526; 77.4% in the assay on WM3619; 84.2% in the assay on WM451Lu.
